Data: PubChem BioAssay AID624296 (National Center for Advancing Translational Sciences (NCATS), 2012)
The whole screen tested about 350,000 compounds, of which about 9,900 (2.8%) were called active. The shares of active, inactive and inconclusive entries below differ from those in the screen. Calls come from the whole dose curve; as a rule, active = well fitted activation curve with a large enough effect; inconclusive = small, poorly fitted or top-dose-only effect; inactive = no such curve, though single readings can be large or run the other way. No potency is given beside an inconclusive call; the fits are too rough.

assay: A quantitative high throughput screen for small molecules that induce DNA re-replication in MCF 10a normal breast cells.; note: nearly all actives have a fitted effect of over 50% in size; for activity, positive = re-replication: % of control where 0% means no effect; conditions: MCF 10A DNA re-replication, Hoechst nuclear intensity, 48 h; activity, positive = re-replication: at 46.1 µM (top of the series)
Potency is the fitted concentration of half-maximal effect; tags give direction and shape of the fitted curve.

Row | SMILES | Potency | activity, positive = re-replication
1 | CCOC(=O)/C=C/C(=O)OCC(=O)Nc1cccc(Br)c1 | inconclusive [activator, single point] | –
2 | Cc1cccc(C)c1OCC(=O)Nc1ccccc1N1CCCCC1 | inconclusive [activator, single point] | –
3 | CCn1nnnc1SCC(=O)N(C)C1CCS(=O)(=O)C1 (stereo not given) | – | inactive: -0.143%
4 | CC(=O)N1CCN(C(=O)c2ccc(-c3ccccc3Cl)o2)CC1 | – | inactive: -2.1%
5 | CC/C(O)=C1\C(=O)CCCC1=NCc1nc2ccccc2[nH]1 | inconclusive [activator, single point] | –
6 | Cc1ccc(S(=O)(=O)N2CCN(C(=O)c3c(-c4ccccc4)noc3C)CC2)cc1 | – | inactive: 10.9%
7 | CCOC(=O)C1C(=O)C=C(c2ccccc2)CC1c1ccccc1 (stereo not given) | inconclusive [activator, single point] | –
8 | COC(=O)Nc1ccc(S(=O)(=O)N2CCCC(C(=O)NCC3CCCO3)C2)cc1 (stereo not given) | – | inactive: 0.255%
9 | COc1cc2c(cc1OC)C(C)N(C(=O)c1cc(Cl)nc(Cl)c1)CC2 (stereo not given) | active: 9.2 µM | –
10 | COc1ccccc1CNC(=O)CCc1cn(C)c2ccccc12 | – | inactive: 9.41%
11 | COc1ccc(OC2CCN(S(=O)(=O)c3ccc(C(C)=O)cc3)CC2)cc1 | inconclusive [activator, partial curve, poor fit] | –
12 | Cc1cccc(N2CCN(C(=O)c3nn(C)c4c3CS(=O)(=O)c3ccccc3-4)CC2)c1C | inconclusive [activator, single point] | –
13 | COc1ccc(C)cc1CN(C)c1ccc(S(=O)(=O)N2CCN(C)CC2)cn1 | inconclusive [activator, single point] | –
14 | NC(=O)N/N=C/c1ccc(-c2ccc([N+](=O)[O-])cc2)o1 | inconclusive [activator, single point] | –
15 | COc1cc2sc3ccc(C#Cc4ccc(N)cc4)cc3c(=O)c2cc1OC | inconclusive [activator, single point] | –
16 | COc1cc(C2C3=C(CCCC3=O)Nc3[nH]n(-c4ccccc4)c(=O)c32)ccc1OC(C)=O (stereo not given) | active: 7.31 µM | –
17 | COC(=O)c1ccc(Sc2ccccc2NS(=O)(=O)c2ccc(NC(C)=O)cc2)nc1 | inconclusive [activator, partial curve, poor fit] | –
18 | CCOC(=O)C(CCSC)NC(=O)CN (stereo not given) | – | inactive: 8.33%
19 | COc1cc2cnc(-c3ccccc3)c(-c3cc(OC)c(OC)c(OC)c3)c2cc1OC | inconclusive [activator, single point] | –
20 | Cn1c(=O)n(C)c2cc(S(=O)(=O)NCCc3ccccc3)ccc21 | inconclusive [activator, single point] | –
21 | C[C@H](NC(=O)c1ccccc1)C(=O)N1CCN(Cc2ccc3c(c2)OCO3)CC1 | inconclusive [activator, single point] | –
22 | CCN(CC(=O)Nc1ccc2c(c1)OCCO2)Cc1nc2cc(Cl)ccc2c(=O)[nH]1 | inconclusive [activator, partial curve, poor fit] | –

Row | SMILES | Potency | activity, positive = re-replication
23 | O=S(=O)(Nc1nc(-c2ccccc2)cs1)c1cc(Cl)ccc1Cl | inconclusive [activator, single point] | –
24 | O=Cc1ccc(C(=O)OCC(=O)NC(=O)Nc2ccccc2F)cc1 | – | inactive: 2.03%
25 | NC(=O)c1sc(-c2ccsc2)cc1NS(=O)(=O)c1ccc(C(F)(F)F)cc1 | inconclusive [activator, single point] | –
26 | CCOC(=O)C1CCN(Cc2ccc(Cl)c(Cl)c2)CC1 | inconclusive [activator, partial curve, poor fit] | –
27 | CCC(=O)N(CCCN(C)C)c1nc(-c2cc(OC)ccc2OC)cs1 | inconclusive [activator, partial curve, poor fit] | –
28 | Cc1ccccc1N(CC(=O)NCC1CCCO1)C(=O)CNS(=O)(=O)c1ccc(F)cc1 (stereo not given) | inconclusive [activator, single point] | –
29 | CN(C)c1ccc(CN(C(=O)C2COc3ccccc3O2)C2CCS(=O)(=O)C2)cc1 (stereo not given) | inconclusive [activator, single point] | –
30 | CCC(CO)NCc1sccc1C (stereo not given) | – | inactive: -9.32%
31 | Nc1ccc(-c2nc(-c3ccccc3)nc3ccccc23)cc1 | active: 16.4 µM | –
32 | COc1cc2oc(=O)cc(-c3ccc(-c4ccc(N(C)C)cc4)cc3)c2c(OC)c1OC | active: 1.03 µM | –
33 | CC(C)(C)c1ccc(NC(=O)NC2CCCc3ccccc32)cc1 (stereo not given) | inconclusive [activator, partial curve] | –
34 | CSCC[C@H](NC(=O)COc1ccc(Cl)cc1)C(=O)N1CCC2(CC1)NCCc1[nH]cnc12 | inconclusive [activator, single point] | –
35 | Cc1cccc(NC(=O)c2cc3c(s2)-c2c(C)cccc2OC3)n1 | inconclusive [activator, partial curve, poor fit] | –
36 | CCOC(=O)C1Oc2ccccc2C(c2cccc3ccccc23)=C1C(=O)OC (stereo not given) | inconclusive [activator, single point] | –
37 | Cc1ccc(C2(C)NC(=O)N(CC(=O)Nc3ccccc3C(=O)NC3CCCC3)C2=O)cc1 (stereo not given) | – | inactive: 10.3%
38 | COc1ccccc1N1C(=O)c2cccc3cccc(c23)C1=O | – | inactive: 23.9%
39 | CCOC(=O)C1CCN(C(=O)c2ccc(N3CCCC3=O)cc2)CC1 | – | inactive: 1.16%
40 | COc1ccc(CNC(=O)CN(C(=O)CCC(=O)Nc2nccs2)c2cccc(C)c2)cc1 | inconclusive [activator, single point] | –
41 | COc1ccc(C(CNC(=O)c2ccc(NS(=O)(=O)c3ccc(F)c(C)c3)cc2)N2CCCC2)cc1 (stereo not given) | inconclusive [activator, single point] | –
42 | O=C(Nc1ccc(Sc2ccc(Br)cc2)cc1)c1ccco1 | inconclusive [activator, partial curve, poor fit] | –
43 | O=C(CCl)N(c1ccccc1)C1CCS(=O)(=O)C1 (stereo not given) | inconclusive [activator, partial curve, poor fit] | –
44 | COC(=O)c1sc(-c2ccc(C(C)(C)C)cc2)cc1NC(=O)c1ccccc1C(=O)O | inconclusive [activator, single point] | –

Row | SMILES | Potency | activity, positive = re-replication
45 | CN(Cc1ccccc1)C1CCNCC1 | inconclusive [activator, single point] | –
46 | O=C(NCC(=O)N1CCN(S(=O)(=O)c2ccccc2)CC1)c1ccc(Br)o1 | – | inactive: -0.557%
47 | Cc1nc(C)c(C(=O)C2=C(O)C(=O)N(CCN(C)C)C2c2ccco2)s1 (stereo not given) | inconclusive [activator, single point] | –
48 | COC(=O)C1(Cc2cc(-c3ccc([N+](=O)[O-])cc3)no2)CCN(C(=O)OC(C)(C)C)CC1 | inconclusive [activator, full curve, poor fit] | –
49 | COc1ccccc1CN(C)C(=O)C(c1ccccc1)c1ccccc1 | inconclusive [activator, single point] | –
50 | CS(=O)(=O)c1ccc(NC(=O)c2cccc(S(=O)(=O)N3CCN(Cc4ccccc4)CC3)c2)cc1 | inconclusive [activator, partial curve, poor fit] | –
51 | O=C(CSc1ccc(-c2ccccn2)nn1)Nc1cccc(F)c1 | inconclusive [activator, single point] | –
52 | Cc1cc(C(=O)NCCC2=CCCCC2)c(C)o1 | inconclusive [activator, single point] | –
53 | CC(C)Oc1cccc(C(=O)C2CCCN(Cc3cnc(N4CCOCC4)s3)C2)c1 (stereo not given) | inconclusive [activator, single point] | –
54 | Cc1ccc(C)c(N2CCN(C(=O)c3cc(S(=O)(=O)N4CCOCC4)ccc3F)CC2)c1 | inconclusive [activator, single point] | –
55 | Fc1ccc(OCc2nnc(-c3ccccc3Br)o2)c(Cl)c1 | inconclusive [activator, single point] | –
56 | CC(C)c1c(O)ccc2c1CC[C@H]1C(C)(C)CCC[C@]21C | inconclusive [activator, single point] | –
57 | Cc1cccc(NC(=O)CNc2cc(C)ccc2C)c1 | – | inactive: -2.2%
58 | Nc1nc(CCl)nc(Nc2ccc3ccccc3c2)n1 | inconclusive [activator, single point] | –
59 | O=C(N/N=C/c1ccccn1)C12CC3CC(CC(C3)C1)C2 | inconclusive [activator, full curve, poor fit] | –
60 | CCOc1ccc(S(=O)(=O)N(C)c2ccc(OCC(=O)NCc3ccco3)cc2)cc1 | inconclusive [activator, full curve, poor fit] | –
61 | Cc1[nH]n2c(=O)c3c(nc2c1-c1ccc(Cl)cc1)CCC3 | inconclusive [activator, full curve, poor fit] | –
62 | Cc1cccc(C(=O)NNS(=O)(=O)c2ccccc2)c1O | inconclusive [activator, partial curve, poor fit] | –
63 | C=CCn1c(SCC(=O)c2[nH]c(C)c(C(=O)OCC)c2C)nc2scc(-c3ccc(OC)cc3)c2c1=O | inconclusive [activator, partial curve, poor fit] | –
64 | CC(=O)N(CC(O)CN(C(C)=O)c1c(I)c(C(=O)NC[C@@H](O)CO)c(I)c(C(=O)NC[C@@H](O)CO)c1I)c1c(I)c(C(=O)NC[C@@H](O)CO)c(I)c(C(=O)NC[C@@H](O)CO)c1I | – | inactive: -1.45% [at 20.6 µM]
65 | COCCNc1oc(/C=C/c2ccc(F)cc2)nc1S(=O)(=O)c1ccccc1 | inconclusive [activator, single point] | –
